Experimental data published in the supplement of paper PMC10126150.
Sequences with one replicate were seen in a single cluster, so their values are uncertain.

Test system: ATP
Test: switch fluorescence ratio, 500 uM ATP over buffer (Cy3 cluster intensity, sum of 5 cycles each) (fold (ratio)); higher = stronger signal-on switching upon ATP binding; sequences stand for … in TCGTCGGCAGCGTCAGATGTGTATAAGAGACAGTTTTTTTTTTTTTTTTTTTTTTTTT…TC
Details: aptamer strand: ATP DNA aptamer (quencher-CACCTGGGGGAGTATTGCGGAGGAAGG + anchor), 100 nM annealed; ATP concentration: 500 uM; one replicate
How it was run: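 Per cluster, summed Cy3 intensity from the target cycles was divided by that from the buffer cycles to give the fluorescence ratio, then averaged per switch-domain sequence. Clusters outside 100-1000 RFU were excluded. The Cy3-labelled switching-strand clusters, on a modified Illumina MiSeq flow-cell, were annealed to 100 nM quencher-labelled ATP aptamer and imaged in selection buffer, then after 15 min with 500 uM ATP at 22 °C, for five cycles with NaOH stripping and re-annealing between them.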
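Also: ATP exposure 15 min at 22 °C before imaging.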

Which switch fluorescence ratio does the source give for ATGACAAGCC here?
The switch fluorescence ratio was 1.08.

How did the switch fluorescence ratio turn out when ATGACACGGT was run?
Its switch fluorescence ratio is 1.07.

ATGACAGA was tested. Which switch fluorescence ratio did it give?
Its switch fluorescence ratio is 1.05.

How did the switch fluorescence ratio turn out when ATGACAGCAT was run?
Its switch fluorescence ratio is 1.08.

ATGACAGTAC was tested. Which switch fluorescence ratio did it give?
Its switch fluorescence ratio is 1.49.

With ATGACATATT as the sequence, how does the switch fluorescence ratio read?
Its switch fluorescence ratio is 1.05.

ATGACCAATA was tested. Which switch fluorescence ratio did it give?
Its switch fluorescence ratio is 1.08.

ATGACCGCTT was tested. Which switch fluorescence ratio did it give?
Its switch fluorescence ratio is 1.05.

ATGACCTCTA was tested. Which switch fluorescence ratio did it give?
Its switch fluorescence ratio is 0.989.

ATGACGGCTT was tested. Which switch fluorescence ratio did it give?
The switch fluorescence ratio was 1.02.

ATGACGTCAT was tested. Which switch fluorescence ratio did it give?
Its switch fluorescence ratio is 0.968.

For ATGACTAGTT, which switch fluorescence ratio is on record?
The switch fluorescence ratio was 0.939.

How did the switch fluorescence ratio turn out when ATGAGCACGT was run?
Its switch fluorescence ratio is 0.981.

With ATGAGGCCAG as the sequence, how does the switch fluorescence ratio read?
The switch fluorescence ratio was 0.998.

Which switch fluorescence ratio does the source give for ATGAGGCGG here?
The switch fluorescence ratio was 0.999.

Which switch fluorescence ratio does the source give for ATGAGTATCT here?
Its switch fluorescence ratio is 1.02.

For ATGAGTGACA, which switch fluorescence ratio is on record?
Its switch fluorescence ratio is 1.02.

How did the switch fluorescence ratio turn out when ATGATAAAAA was run?
The switch fluorescence ratio was 0.998.

Which switch fluorescence ratio does the source give for ATGATAATAT here?
The switch fluorescence ratio was 0.997.

For ATGATATATG, which switch fluorescence ratio is on record?
The switch fluorescence ratio was 1.05.

For ATGATATCCT, which switch fluorescence ratio is on record?
The switch fluorescence ratio was 1.07.

For ATGATGTATT, which switch fluorescence ratio is on record?
The switch fluorescence ratio was 0.984.

How did the switch fluorescence ratio turn out when ATGATTGTCT was run?
Its switch fluorescence ratio is 1.05.

Which switch fluorescence ratio does the source give for ATGATTGTGT here?
The switch fluorescence ratio was 1.

How did the switch fluorescence ratio turn out when ATGATTTGG was run?
The switch fluorescence ratio was 0.99.

How did the switch fluorescence ratio turn out when ATGCAATTTA was run?
The switch fluorescence ratio was 1.04.

With ATGCAGGGCC as the sequence, how does the switch fluorescence ratio read?
Its switch fluorescence ratio is 0.979.

For ATGCAGTGGG, which switch fluorescence ratio is on record?
The switch fluorescence ratio was 1.06.

For ATGCATACTA, which switch fluorescence ratio is on record?
The switch fluorescence ratio was 1.05.

ATGCATCGCA was tested. Which switch fluorescence ratio did it give?
The switch fluorescence ratio was 1.01.

For ATGCATTTGA, which switch fluorescence ratio is on record?
Its switch fluorescence ratio is 0.998.

ATGCCCTTAT was tested. Which switch fluorescence ratio did it give?
The switch fluorescence ratio was 0.974.

ATGCCGCTTG was tested. Which switch fluorescence ratio did it give?
The switch fluorescence ratio was 0.994.

With ATGCCTCATC as the sequence, how does the switch fluorescence ratio read?
Its switch fluorescence ratio is 0.97.

Which switch fluorescence ratio does the source give for ATGCGAGCGC here?
The switch fluorescence ratio was 0.994.

With ATGCGAGGGT as the sequence, how does the switch fluorescence ratio read?
Its switch fluorescence ratio is 1.01.

With ATGCGAGGTA as the sequence, how does the switch fluorescence ratio read?
The switch fluorescence ratio was 0.991.

For ATGCGATTCC, which switch fluorescence ratio is on record?
Its switch fluorescence ratio is 1.07.

With ATGCGCAAGA as the sequence, how does the switch fluorescence ratio read?
The switch fluorescence ratio was 1.22.

With ATGCGCTGCT as the sequence, how does the switch fluorescence ratio read?
The switch fluorescence ratio was 1.03.

With ATGCGGAATT as the sequence, how does the switch fluorescence ratio read?
The switch fluorescence ratio was 0.995.

With ATGCGGAGCT as the sequence, how does the switch fluorescence ratio read?
Its switch fluorescence ratio is 1.02.

For ATGCGGATGT, which switch fluorescence ratio is on record?
The switch fluorescence ratio was 1.01.

ATGCGGTCCA was tested. Which switch fluorescence ratio did it give?
Its switch fluorescence ratio is 0.967.

For ATGCGGTGAC, which switch fluorescence ratio is on record?
Its switch fluorescence ratio is 0.993.

ATGCGTAACC was tested. Which switch fluorescence ratio did it give?
The switch fluorescence ratio was 0.995.

Which switch fluorescence ratio does the source give for ATGCGTGATA here?
The switch fluorescence ratio was 1.02.

How did the switch fluorescence ratio turn out when ATGCGTGGG was run?
Its switch fluorescence ratio is 1.01.

ATGCGTTGG was tested. Which switch fluorescence ratio did it give?
Its switch fluorescence ratio is 1.03.

Which switch fluorescence ratio does the source give for ATGCTACACG here?
The switch fluorescence ratio was 1.02.

How did the switch fluorescence ratio turn out when ATGCTATACA was run?
Its switch fluorescence ratio is 1.02.

Which switch fluorescence ratio does the source give for ATGCTCGCTT here?
The switch fluorescence ratio was 0.998.

ATGCTTATGC was tested. Which switch fluorescence ratio did it give?
Its switch fluorescence ratio is 0.992.

With ATGCTTCCAC as the sequence, how does the switch fluorescence ratio read?
Its switch fluorescence ratio is 1.06.

ATGCTTTTT was tested. Which switch fluorescence ratio did it give?
The switch fluorescence ratio was 1.

Which switch fluorescence ratio does the source give for ATGGAGCACT here?
Its switch fluorescence ratio is 1.33.

With ATGGATACGC as the sequence, how does the switch fluorescence ratio read?
The switch fluorescence ratio was 1.13.

ATGGATTCTC was tested. Which switch fluorescence ratio did it give?
Its switch fluorescence ratio is 1.01.

Which switch fluorescence ratio does the source give for ATGGCAAGAG here?
The switch fluorescence ratio was 1.21.

ATGGCATAAT was tested. Which switch fluorescence ratio did it give?
The switch fluorescence ratio was 0.983.

With ATGGCCGTAA as the sequence, how does the switch fluorescence ratio read?
The switch fluorescence ratio was 1.01.

ATGGCGCCCG was tested. Which switch fluorescence ratio did it give?
Its switch fluorescence ratio is 1.02.

For ATGGCGCCGC, which switch fluorescence ratio is on record?
The switch fluorescence ratio was 1.03.

ATGGCGTCGT was tested. Which switch fluorescence ratio did it give?
The switch fluorescence ratio was 1.03.

How did the switch fluorescence ratio turn out when ATGGCGTTAC was run?
The switch fluorescence ratio was 1.01.

With ATGGCTAAGG as the sequence, how does the switch fluorescence ratio read?
Its switch fluorescence ratio is 0.972.

With ATGGCTAAGT as the sequence, how does the switch fluorescence ratio read?
Its switch fluorescence ratio is 1.04.

Which switch fluorescence ratio does the source give for ATGGCTTAGG here?
The switch fluorescence ratio was 0.974.

Which switch fluorescence ratio does the source give for ATGGGAGACT here?
Its switch fluorescence ratio is 1.02.

ATGGGAGTCA was tested. Which switch fluorescence ratio did it give?
The switch fluorescence ratio was 0.973.

ATGGGCTTAA was tested. Which switch fluorescence ratio did it give?
The switch fluorescence ratio was 1.01.

For ATGGGGACGC, which switch fluorescence ratio is on record?
Its switch fluorescence ratio is 1.

How did the switch fluorescence ratio turn out when ATGGGGATTC was run?
Its switch fluorescence ratio is 1.

ATGGGGTTCA was tested. Which switch fluorescence ratio did it give?
Its switch fluorescence ratio is 0.971.

Which switch fluorescence ratio does the source give for ATGGGGTTG here?
Its switch fluorescence ratio is 0.944.

ATGGTAGAGG was tested. Which switch fluorescence ratio did it give?
The switch fluorescence ratio was 0.96.

For ATGGTATCTA, which switch fluorescence ratio is on record?
Its switch fluorescence ratio is 1.02.

With ATGGTATGCG as the sequence, how does the switch fluorescence ratio read?
Its switch fluorescence ratio is 0.971.

How did the switch fluorescence ratio turn out when ATGGTTGCT was run?
Its switch fluorescence ratio is 0.94.

Which switch fluorescence ratio does the source give for ATGTAAGC here?
The switch fluorescence ratio was 1.07.

ATGTAATCTC was tested. Which switch fluorescence ratio did it give?
The switch fluorescence ratio was 1.03.

For ATGTACCAGA, which switch fluorescence ratio is on record?
The switch fluorescence ratio was 1.06.

With ATGTACTCTA as the sequence, how does the switch fluorescence ratio read?
Its switch fluorescence ratio is 1.15.

How did the switch fluorescence ratio turn out when ATGTAGGGCA was run?
The switch fluorescence ratio was 1.01.

ATGTAGGGCT was tested. Which switch fluorescence ratio did it give?
The switch fluorescence ratio was 0.961.

For ATGTAGGTGG, which switch fluorescence ratio is on record?
The switch fluorescence ratio was 0.973.

With ATGTAGTCTA as the sequence, how does the switch fluorescence ratio read?
Its switch fluorescence ratio is 0.993.

How did the switch fluorescence ratio turn out when ATGTATCGAT was run?
The switch fluorescence ratio was 0.974.

With ATGTATGATT as the sequence, how does the switch fluorescence ratio read?
Its switch fluorescence ratio is 1.03.

For ATGTATTGGC, which switch fluorescence ratio is on record?
The switch fluorescence ratio was 0.996.

Which switch fluorescence ratio does the source give for ATGTCAAAAA here?
The switch fluorescence ratio was 0.978.

For ATGTCAAAAC, which switch fluorescence ratio is on record?
The switch fluorescence ratio was 1.09.

For ATGTCAATTA, which switch fluorescence ratio is on record?
The switch fluorescence ratio was 0.989.

Which switch fluorescence ratio does the source give for ATGTCCAGGC here?
The switch fluorescence ratio was 1.03.

Which switch fluorescence ratio does the source give for ATGTCCCAGA here?
The switch fluorescence ratio was 0.999.

How did the switch fluorescence ratio turn out when ATGTCGGTAC was run?
The switch fluorescence ratio was 1.06.

How did the switch fluorescence ratio turn out when ATGTCTGCTG was run?
Its switch fluorescence ratio is 1.01.

Which switch fluorescence ratio does the source give for ATGTGAACCC here?
The switch fluorescence ratio was 1.05.

Which switch fluorescence ratio does the source give for ATGTGACCCT here?
Its switch fluorescence ratio is 1.03.

With ATGTGAGATG as the sequence, how does the switch fluorescence ratio read?
Its switch fluorescence ratio is 0.975.
